# The campaign covered roughly 310,000 compounds. About 2,200 (0.71%) showed an effect of 50% or more. The effect is printed as a negative number. The list shows a part of the results.
# Target: human ether-à-go-go-related gene (hERG) potassium channel (human, UniProt Q12809)
# Test: primary screen, population patch clamp on CHO cells stably expressing hERG
# human ether-à-go-go-related gene (hERG) potassium channel, sequence (Q12809 whole entry, looked up): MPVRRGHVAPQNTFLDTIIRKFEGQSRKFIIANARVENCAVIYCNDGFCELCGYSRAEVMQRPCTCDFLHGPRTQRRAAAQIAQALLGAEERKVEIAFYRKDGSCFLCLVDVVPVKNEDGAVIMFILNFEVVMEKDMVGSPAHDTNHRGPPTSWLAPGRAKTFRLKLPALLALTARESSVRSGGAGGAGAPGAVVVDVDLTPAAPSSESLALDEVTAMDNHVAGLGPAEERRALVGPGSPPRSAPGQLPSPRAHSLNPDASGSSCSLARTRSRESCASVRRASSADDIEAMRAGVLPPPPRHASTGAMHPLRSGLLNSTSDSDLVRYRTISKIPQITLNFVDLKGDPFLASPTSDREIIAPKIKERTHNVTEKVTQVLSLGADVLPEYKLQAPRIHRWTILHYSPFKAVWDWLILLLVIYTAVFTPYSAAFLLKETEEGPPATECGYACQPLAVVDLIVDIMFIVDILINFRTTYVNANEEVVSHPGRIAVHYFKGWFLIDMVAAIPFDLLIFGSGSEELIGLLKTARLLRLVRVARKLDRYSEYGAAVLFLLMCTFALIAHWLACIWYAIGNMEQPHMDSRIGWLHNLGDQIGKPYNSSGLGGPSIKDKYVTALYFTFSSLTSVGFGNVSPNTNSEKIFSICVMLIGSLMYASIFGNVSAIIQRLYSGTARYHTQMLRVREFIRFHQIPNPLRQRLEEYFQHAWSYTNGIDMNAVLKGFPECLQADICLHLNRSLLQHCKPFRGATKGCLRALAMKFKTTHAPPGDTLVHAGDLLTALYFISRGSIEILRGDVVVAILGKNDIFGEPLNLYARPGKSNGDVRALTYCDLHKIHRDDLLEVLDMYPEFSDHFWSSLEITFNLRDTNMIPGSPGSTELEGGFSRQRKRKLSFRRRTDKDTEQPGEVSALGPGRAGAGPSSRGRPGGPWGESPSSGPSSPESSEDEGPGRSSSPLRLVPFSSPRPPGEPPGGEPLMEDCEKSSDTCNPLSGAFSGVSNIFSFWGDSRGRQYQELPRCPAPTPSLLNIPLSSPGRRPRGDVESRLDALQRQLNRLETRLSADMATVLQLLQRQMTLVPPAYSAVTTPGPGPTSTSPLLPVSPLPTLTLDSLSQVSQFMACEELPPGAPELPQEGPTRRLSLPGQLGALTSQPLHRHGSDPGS
row,SMILES,"hERG current change (%, negative = inhibition) at 1uM"
1,CCCCNC1CCS(=O)(=O)C1 (stereo not drawn),7.42%
2,O=C(CNC(=O)c1ccccc1)c1ccccc1,8.05%
3,Cc1ccc(C(=O)N(CCC2=CCCCC2)c2c(N)n(Cc3ccccc3)c(=O)[nH]c2=O)o1,5.54%
4,C/C(=N\NC(=O)c1ccc(O)cc1O)c1cccnc1,17.4%
5,S=C(N=Nc1ccccc1)NNc1ccccc1,14.9%
6,COc1cccc(CNC(=O)CCc2nnc3ccc(NCCCN4CCCC4=O)nn23)c1,23.7%
7,CC1CCC(NC(=O)C(Cc2ccccc2)n2cccc2)CC1 (stereo not drawn),2.79%
8,CNC(=S)N1CCN=C1Nc1nc(C)cc(C)n1,7.98%
9,Cc1ccc(C(=O)NC(=S)Nc2cccc(-c3nc4ccccc4s3)c2)cc1,14.8%
10,CC(=O)N1CCN(C(=O)CNC(=O)c2cccs2)CC1,0.464%
11,CCOP(=O)(OCC)c1nc(-c2ccccc2)oc1NCc1ccccc1,9.55%
12,Cc1ccc(S(=O)(=O)N2CCC(C(=O)NCCN3CCOCC3)CC2)cc1C,8.96%
13,O=C(Nc1ccc(Nc2ccccc2)cc1)c1c(Cl)cccc1Cl,12.4%
14,Cc1ccccc1N1C(=O)C2C3CC(=O)C(c4ccccc43)C2C1=O (stereo not drawn),9.82%
15,Cc1cccc(C)c1NC(=O)COc1ccccc1C(=O)Nc1ccc(Br)cn1,16.3%
16,Cc1c(NC(=S)NC(=O)c2cccc([N+](=O)[O-])c2)c(=O)n(-c2ccccc2)n1C,2.84%
17,Cc1ccccc1C(=O)Oc1cccc(Nc2ncnc3ccccc23)c1,4.05%
18,COc1ccc(NC(=O)CNc2ccc(C#N)cc2)cc1,5.56%
19,O=C(Nc1nccs1)C(F)(F)C(F)(F)C(F)(F)C(=O)Nc1nccs1,5.46%
20,O=C(O)CCCCCCCCCC(=O)c1cccs1,17.1%
21,O=C(CCNC(=O)c1ccco1)Nc1ccc(OC(F)(F)F)cc1,12%
22,Cc1ccc(NC(=O)Nc2cccc(C)n2)c(C)c1,-1.56%
23,Cc1cc(C)nc(NS(=O)(=O)c2ccc(NC(=O)c3cccs3)cc2)n1,7.1%

row,SMILES,"hERG current change (%, negative = inhibition) at 1uM"
1,Cn1c(=O)n(C)c2cc(NS(=O)(=O)c3ccccc3)ccc21,10.8%
2,C=C[C@@](C)(O)CC[C@@H]1[C@@]2(C)CCCC(C)(C)[C@@H]2CC[C@@]1(C)O,-4.15%
3,COc1ccc(S(=O)(=O)C(C#N)c2nc3ccccc3nc2N2CCCC(C)C2)cc1 (stereo not drawn),26.6%
4,CCN(CC)C(=O)CN1C(=O)COCC1=O,5.42%
5,C=CCSc1n[nH]c(=O)n1-c1cccc(C(F)(F)F)c1,11%
6,Nc1ccccc1C(=O)N1CCc2ccccc21,13.2%
7,O=C(Cn1nnc(-c2ccccc2)n1)c1ccccc1,5.04%
8,COc1ccc(NC(=O)CSc2nnc(C3CC3)n2C)cc1,9.99%
9,CN(C(=O)c1ccc(COc2ccccc2Cl)o1)c1ccccc1,7.28%
10,CCOC(=O)C1=C(C)N=c2s/c(=C\C(=O)OC)c(=O)n2C1c1ccc(OC)cc1 (stereo not drawn),-9.14%
11,CC(=O)NC(CCCCNC(=S)NC1CCCCC1)C(=O)O (stereo not drawn),8.23%
12,Cc1ncc([N+](=O)[O-])n1CCOC(=O)Nc1ccc(Cl)c(Cl)c1,1.97%
13,CCCCn1nc2cc(C(=O)NC3CCCc4ccccc43)ccc2c1OCC (stereo not drawn),1.34%
14,CC(=O)N1C(C(=O)O)CSC1c1cccc(C)c1 (stereo not drawn),24.1%
15,CCCc1nnc(SCC(=O)NC2CC2)n1CC,16.9%
16,O=C(O)C1Nc2c(Cl)cc(Cl)c(Cl)c2C2C=CCC12 (stereo not drawn),14.2%
17,Cc1ccc(OCCOC(=O)CN2C(=O)NC3(CCCC3)C2=O)cc1,16.2%
18,CN(C)c1ccc(/C=C(\NC(=O)c2ccccc2)C(=O)NCCN2CCOCC2)cc1,8%
19,COc1ccc(C(=O)C/C(=C\C(=O)c2ccc(C)cc2)c2ccccc2)cc1,12.4%
20,CN1CCN(S(=O)(=O)c2ccc(NC(=O)C3CCCCC3)cc2)CC1,-4.12%
21,NC(=O)CC(NC(=O)c1ccc(Br)cc1)c1ccc(N2CCC(Cc3ccccc3)CC2)c([N+](=O)[O-])c1 (stereo not drawn),-5.26%
22,CCOC(=O)c1ccc(NC(=O)c2ccco2)cc1,8.74%
23,CCC(=O)N1N=C(c2ccc(NS(C)(=O)=O)cc2)CC1c1ccc(C)cc1 (stereo not drawn),-19.6%

row,SMILES,"hERG current change (%, negative = inhibition) at 1uM"
1,COc1ccc(NC(=S)NCCc2c(C)[nH]c3ccc(OC)cc23)cc1,8.44%
2,COc1ccc(S(=O)(=O)NCCc2c[nH]c3ccc(Cl)cc23)cc1,21.2%
3,O=C(/C=C/c1ccccc1O)c1ccco1,9.1%
4,Cc1ccc(C(=O)N2CCN(c3ccccc3F)CC2)cc1NC1=NC2CS(=O)(=O)CC2S1 (stereo not drawn),17.8%
5,O=C(CSc1nc2ccccc2c(=O)n1CCCN1CCOCC1)Nc1cccc(S(=O)(=O)N2CCCCCC2)c1,-9.75%
6,O=C(NCCC(=O)N1CCC2(CC1)NCCc1[nH]cnc12)c1ccc(F)c(F)c1,9.73%
7,O=C(C1COc2ccccc2O1)N1CCCC1 (stereo not drawn),17.5%
8,O=[N+]([O-])/C(Cl)=C1\NCCN1Cc1ccc(Cl)nc1,8.99%
9,Cc1nn(-c2cccc(Cl)c2)nc1C(=O)Nc1cccc(C(=O)NC2CC2)c1,4.59%
10,CCOC(=O)c1cc(CC)sc1NC(=O)c1ccc(N2CCOCC2)c([N+](=O)[O-])c1,5.05%
11,Cc1cc(=O)n2[nH]c(SCc3c(F)cccc3Cl)nc2n1,6.17%
12,O=C(c1ccc(C(F)(F)F)cc1)N1CCN(c2ccc(N3CCOCC3)nn2)CC1,-37.5%
13,COc1ccc(/C=C/C(=O)NCCc2nc3ccccc3[nH]2)cc1,20%
14,Clc1ccc(C2=CSC3=Nc4cccc5cccc(c45)N23)cc1,8.39%
15,COC(=O)/C=C/c1ccc2c(c1)OCO2,14.9%
16,CC[C@@H](CO)NC(=O)[C@@H]1C=C2c3cccc4c3c(cn4C)C[C@H]2N(C)C1.O=C(O)/C=C\C(=O)O,13.7%
17,CCCn1c(N)c(N(CCOC)C(=O)Cc2ccc(S(=O)(=O)N3CCOCC3)s2)c(=O)[nH]c1=O,21.1%
18,O=C(NNc1c2ccccc2nc2ccccc12)c1ccc(O)cc1,1.1%
19,COCCn1c(C)cc(C(=O)COC(=O)c2ccc(NC(=O)CC#N)cc2)c1C,10.1%
20,C/C(=N\N=c1/scc(C)n1Cc1ccco1)c1cccc([N+](=O)[O-])c1,9.24%
21,COc1ccccc1Nc1nc(N)nc(CN2CCOCC2)n1,14.7%
22,c1ccc2c(c1)Oc1ccccc1S2,9.28%
23,O=C(CCS(=O)(=O)c1ccccc1Cl)Nc1ccc(S(=O)(=O)Nc2ncccn2)cc1,10.9%

row,SMILES,"hERG current change (%, negative = inhibition) at 1uM"
1,CCOc1cc(N2CCOCC2)c(OCC)cc1NC(=O)C1CCCC1,16.6%
2,O=C(COc1ccccc1Cl)NCc1ccccc1,5.11%
3,Cc1ccc(C(=O)N2CCCC(Nc3ccc(F)c(F)c3)C2)cn1 (stereo not drawn),-18.2%
4,O=C(CCCCCN1C(=O)c2ccccc2C1=O)Nc1ccc(S(=O)(=O)N2CCCCC2)cc1,-15.1%
5,COc1ccc(Nc2oc(-c3ccc(OC)cc3)nc2C#N)cc1,15.3%
6,Cc1oc2c(cc(NS(=O)(=O)c3ccc(F)cc3)c3ccccc32)c1C(=O)O,9.85%
7,COc1ccc(/C=N/NC(=O)CNC(=O)/C=C/c2ccccc2OC)cc1,11.2%
8,C=CCN1C(=O)/C(=C\c2cccc(OC(=O)c3ccco3)c2)SC1=S,3.23%
9,O=C(NC1CCCC1)C1CCCN1C(=O)Oc1ccccc1 (stereo not drawn),15.1%
10,O=C1C=C(c2ccc(F)cc2OCc2ccccc2)C[C@@H](c2ccc(Cl)cc2)C1,0.618%
11,COCc1ccc(C(=O)N2CCCC(N(C)CCc3ccc(OC)c(OC)c3)C2)s1 (stereo not drawn),-23.9%
12,COc1ccc(OCC(=O)Nc2ccc(C)cc2)cc1,13.8%
13,COc1cccc(C(=O)Nc2nnc(SCC(=O)NC3CCCC3)s2)c1,15.4%
14,CC(C)N(Cc1ccccc1)S(=O)(=O)c1cccs1,6.18%
15,CC1=C(C(=O)OCc2ccccc2)C(c2cccc([N+](=O)[O-])c2)NC(=O)N1C (stereo not drawn),6.25%
16,CCOC(=O)CSc1nnc(C)c(C)n1,-9.33%
17,CCc1ccc(-c2cc(C)no2)cc1S(=O)(=O)N1CCN(C(=O)c2ccco2)CC1,-4.73%
18,COCCN(Cc1cc2cccc(C)c2[nH]c1=O)C(=O)c1ccccc1,13.8%
19,CCOc1ccc(C2C(C(=O)C3CC3)N3C=C(C#N)C=CC3C2(C#N)C#N)cc1 (stereo not drawn),8.43%
20,O=C(NCCCN1CCCC1=O)c1csc2ccccc12,-13.5%
21,COC(=O)CSc1nnc(-c2sc3ccccc3c2Cl)o1,4.96%
